# Test results from the supplement of paper PMC3334620.
# In all, about 33,000 sequences were measured (“E-score (-0.5 to 0.5)”: median about -0.021, highest 2% from about 0.32 on). Some of the results follow.
# Biological target: T1, Zap1 (UniProt P47043)
# T1 sequence: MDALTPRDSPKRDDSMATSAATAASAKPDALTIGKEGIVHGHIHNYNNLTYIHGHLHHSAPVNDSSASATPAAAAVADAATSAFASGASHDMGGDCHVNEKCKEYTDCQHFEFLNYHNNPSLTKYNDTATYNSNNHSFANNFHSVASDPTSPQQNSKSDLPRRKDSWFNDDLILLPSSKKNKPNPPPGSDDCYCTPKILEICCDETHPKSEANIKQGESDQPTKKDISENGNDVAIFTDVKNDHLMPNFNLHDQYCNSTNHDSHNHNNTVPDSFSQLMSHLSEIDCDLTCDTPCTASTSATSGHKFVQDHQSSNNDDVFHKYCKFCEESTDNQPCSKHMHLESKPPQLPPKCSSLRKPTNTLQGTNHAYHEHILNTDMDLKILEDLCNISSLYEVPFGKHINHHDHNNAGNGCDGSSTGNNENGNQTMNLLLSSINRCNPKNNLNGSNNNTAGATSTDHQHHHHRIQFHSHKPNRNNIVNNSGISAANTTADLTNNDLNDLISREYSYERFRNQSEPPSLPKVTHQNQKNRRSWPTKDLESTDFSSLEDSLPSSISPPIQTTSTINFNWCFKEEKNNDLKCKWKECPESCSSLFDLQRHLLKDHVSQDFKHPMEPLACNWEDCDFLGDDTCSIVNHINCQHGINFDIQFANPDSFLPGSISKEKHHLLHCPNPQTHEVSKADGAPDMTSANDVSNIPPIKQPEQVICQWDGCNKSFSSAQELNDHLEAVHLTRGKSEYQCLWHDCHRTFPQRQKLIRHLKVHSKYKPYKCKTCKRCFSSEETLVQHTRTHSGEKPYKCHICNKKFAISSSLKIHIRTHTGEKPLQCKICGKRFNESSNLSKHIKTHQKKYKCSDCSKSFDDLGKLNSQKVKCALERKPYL
# Assay: PBM E-score (8-mer binding enrichment) (E-score (-0.5 to 0.5)); higher = stronger / more preferred TF binding; most listed sequences are background and not binding sites
# Conditions: protein concentration: 200 nM; construct: GST-full length
# Summary of the method: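 GST-tagged yeast TFs (full-length or DNA-binding domain) were made by PURExpress in vitro transcription/translation and applied at about 100-200 nM to universal all-10-mer Agilent arrays. The arrays were made double-stranded by primer extension, on fresh or once-stripped slides. Bound protein was detected with fluorescent anti-GST, and scans were normalised with masliner. Each ungapped eight-base word, pooled with its reverse complement, received an E-score (modified Wilcoxon-Mann-Whitney statistic) from the Universal PBM Analysis Suite.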
row,Sequence,PBM E-score
1,CCTCCACC,-0.0195
2,CAACTGGC,-0.0185
3,GAGATCGA,-0.0323
4,GCTGACCC,0.0617
5,ACGATCAA,-0.0783
6,GCGGCGAA,-0.0534
7,ATTGTAGA,0.0477
8,TAGTAGAA,-0.0183
9,GGGCTTAA,-0.0211
10,AGTTATTC,0.0952
11,CTGGGGAC,-0.143
12,GGGGTACC,0.424
13,ATACAGTG,0.154
14,ACTTGGTA,0.0925
15,CCATACGC,-0.112
16,AGGGTAGG,0.32
17,AGTGGTTA,0.434
18,AAGCCTTA,-0.245
19,AAAGACTG,-0.268
20,GTCGTGCA,0.0329
21,GCCTTGAC,0.052
22,AAAAAGGT,0.403
23,AAGTAACA,-0.0158
24,CCTGCTCA,-0.0182
25,CCGCTGAA,0.0515

row,Sequence,PBM E-score
1,ACTACGAG,0.0224
2,AAGGTCTA,0.157
3,AATCGCAT,0.025
4,CCAACACA,0.167
5,TATTTGAA,0.189
6,ATTGAAGC,-0.0429
7,CTTAGACA,-0.104
8,ACTCATAC,0.0265
9,CTAGTAGC,-0.168
10,CCAGCGGC,-0.172
11,CCTTAGCG,-0.0794
12,GCCCAGAA,-0.0621
13,CGGTGACG,0.0241
14,GCGCGCAC,0.0311
15,CTCATCTC,-0.121
16,ATAACTAT,0.255
17,GGCATGAC,-0.132
18,TACTAATA,0.118
19,CACTTTTA,0.0635
20,CGCCTCAA,-0.107
21,AATCCGGA,-0.0976
22,AATGCGTG,-0.103
23,CGTGTGTA,0.0585
24,GTTAGACA,0.128
25,AACGCGAA,0.179

row,Sequence,PBM E-score
1,GTCGAGTA,-0.0846
2,ACGCCGCC,-0.28
3,AGTGAGTA,0.183
4,CTTGGCTA,-0.116
5,CCCAGGAA,-0.0899
6,CCACCCTC,0.358
7,ATGCCGAA,-0.116
8,ATTCGAAT,0.126
9,ACGTTGCA,-0.0204
10,GAAGACGA,-0.183
11,GACCCCGC,0.0879
12,ACTATTTG,0.165
13,AGTGGACG,0.0699
14,AACCTGTA,0.324
15,GTAACTAC,0.3
16,AAATCTCT,-0.0767
17,CGGAGGCA,-0.116
18,CGACAGAC,-0.0148
19,ATTCCGAC,0.0318
20,CGAAGCCA,-0.154
21,AGGTACAA,0.15
22,GCGCCTTA,-0.066
23,AACCACAA,0.34
24,AGCAATTA,0.132
25,GGTGAACA,-0.231

row,Sequence,PBM E-score
1,AACTGAGG,0.205
2,AATGACTG,-0.145
3,ACGTTCCA,-0.0687
4,ACGCAATC,-0.0245
5,CCTGGACG,-0.101
6,AACTAGGT,0.178
7,AGCTGGCG,-0.283
8,CCCCACTC,-0.119
9,ACCTGCTC,-0.0883
10,CATGTAAC,0.191
11,TAGAGTGA,0.0251
12,AGACTAAT,-0.105
13,ACCAGATA,0.219
14,CACCAATA,0.108
15,CGCACGTC,-0.14
16,GAGCCGTA,-0.081
17,GCAATTCA,-0.0856
18,CAAAGGAA,0.0643
19,CATTTGGG,0.0343
20,AAGTCTAT,-0.0715
21,AGGTATCG,0.206
22,CGCTATTA,-0.0112
23,CTGGGGTC,0.266
24,AAGAGGTA,0.272
25,GACATCTC,-0.0894

row,Sequence,PBM E-score
1,AACGCTTA,-0.126
2,CGTTGTAG,-0.0486
3,TATGCGAA,0.143
4,CTTAGGCA,-0.175
5,ACCGTCAC,0.139
6,ACGCATAA,-0.0273
7,ACACATTA,-0.154
8,GCCACTAC,-0.0479
9,AGCCCTGG,-0.193
10,GGCCCTCA,-0.102
11,GGCACGTA,-0.273
12,AGTCGGAG,-0.0634
13,CTTTCGAC,-0.0437
14,ATACGGGG,0.00834
15,GCAACGGC,-0.0373
16,ATCAGAAC,0.0575
17,AAACTGGC,-0.269
18,CCTTGCGA,0.132
19,AGCTGGCA,-0.0191
20,AGGGGGTA,0.0442
21,ATTATACC,0.338
22,TGACCCAA,0.302
23,CTCTAGTC,-0.0908
24,ATATTGCA,0.0217
25,TAGCCAAA,0.0689

row,Sequence,PBM E-score
1,GCCTTCAA,-0.0467
2,ATATCGCC,-0.0515
3,AGTGCATG,-0.244
4,CCTAGCGC,-0.0463
5,AACACACT,-0.0742
6,CAACCGTC,0.0248
7,ACTTTCAC,0.0623
8,ACAAAGCT,0.0945
9,AATAGTAG,0.0797
10,GTCATACA,-0.0161
11,AAAGTACG,0.091
12,CGCAATTA,0.107
13,GTTTGATA,0.149
14,CTATCAGC,0.0383
15,CCATTGAA,0.174
16,GGATCGTA,-0.138
17,GTCGGCTA,-0.139
18,CTAACCCC,0.178
19,GAGGGATA,-0.0761
20,ATTACGTG,0.0274
21,CGCTTACG,-0.315
22,GGATCTAA,-0.00806
23,ACACTCCA,-0.0521
24,CCAAGCAG,0.00906
25,AACCAGTC,0.178

row,Sequence,PBM E-score
1,AGGCGTGG,-0.21
2,AATCTGTG,-0.18
3,AACTAGCG,-0.0485
4,CTCATGAC,0.0653
5,AGACGGCG,-0.189
6,AGTCTTTA,-0.13
7,AGTATCAT,0.0198
8,CCAAGACA,-0.013
9,CTCGCGAC,0.0966
10,TACGGGCA,0.0915
11,ACGCACAT,-0.145
12,ATAGATAG,-0.17
13,ATTCCTCA,0.058
14,ACACGTCA,-0.167
15,CCGAAACA,0.127
16,AGCTGGAA,-0.162
17,CTTGACTA,-0.0131
18,CAGCCCAC,-0.113
19,ACTCTCGA,0.0278
20,AGCTAGGG,-0.0047
21,CGTATTAA,0.0698
22,ACCCTATG,0.368
